Variants at the background level are over-represented here.
B1: TPR 5TU (parent)
chain: GGAUCUUCUCGAUCUAACAAAAAAGACAAAUCUGCCACAAAGCUUGAGAGCAUCUUCGGAUGCAGAGGCGGCAGCCUUCGGUGGCGCGAUAGCGCCAACGUUCUCAACUAUGACACGCAAAACGCGUGCUCCGUUGAAUGGAGUUUAUCAUG

Variants of: B1
Experiment: polymerase ribozyme fitness, log enrichment relative to wild type (log ratio); higher = more active; in vitro selection for triplet polymerase activity
Procedure, shortened: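 Each subunit of a heterodimeric triplet polymerase ribozyme was mutagenized into a library by PCR, transcribed, and subjected to one round of in vitro selection, run in triplicate. Libraries were annealed with a biotinylated primer, the partner subunit and triplets, incubated frozen at −7 °C, and extended constructs were gel-excised, captured on streptavidin beads and recovered by RT-PCR. Input and output libraries were sequenced on Illumina, keeping genotypes with ≥10 input reads and ≥1 read per output. Fitness is log base 2 of genotype enrichment divided by wild-type enrichment, from inverse-variance-weighted replicate averages.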

Row | Variant | polymerase ribozyme fitness (log ratio)
1 | GGAUCUUCUCGAUCUAACAAAAAAGAAAAAUCUGCCACAAAUCUUGAGAGCAUCUUCGGAUGCAGAGGCGGCAGCCUUCGGUGGCGCGAUAGCGCCAACGUGCUCAACUAUGACACGCAAAACGCGUGCUCCCUUGAAUGGAGUUUAUCAUG | ≤ -4.2
2 | GGAUCUUCUCGAUCUAACAAAAAAGAAAAAUCUGCUACAAAGCUUGCGAGCAUCUUCGUAUGCAGAGGCGGCAGCCUUAGGUGGCGCGAUAGCUCCAACGUUCUCAACUAUGACACGCAAAACGCGUGCUCCGUUGAAUGGAGUUUAUCAUG | ≤ -4.2
3 | GGAUCUUCUCGAUCUAACAAAAAAGAAAAAUCUGCCACAAAGCUUGAGGGCAUCUUCGGGUGCAGAGGCGGCAGCCUUCGGUGGUGCGAUAGCGCCAACGUUCUCAACUAUGACACGCAAAACGCGUGCUCCGUUGAAUGGAGUUUAUCAUG | ≤ -4.2
4 | GGAUCUUCUCGAUCUAACAAAAAAGAAAAAUCUGCCACAAAGCUUGAGAACAUCUUAGGAUGCAGAGGCGGUAGCCUUCGGUGUCGCGAUAGCGCCAACGUUCUCAACUAUGACACGCAAAACGCGUGCUCCGUUGAAUGGAGUUUAUCAUG | ≤ -4.2
5 | GGAUCUUCUCGAUCUAACAAAAAAGUCAAACCUGCCACAAAGCUUGAGAGCAUCUUCGGAUGCAGAGGCGGCGGCCUUCGGUAGCGCGAUAGCGCCAACGUUCUCAACUAUGACACGCAAAACGAGUGCUCCGUUGCAUGGAAUUUAUCAUG | ≤ -4.2
6 | GGAUCUUCUCGAUCUAACAAAAAAGAAAAAUCUGCCACAAAGCUUGAGCGCAUCGUCGGAUGCAGAGGCGGCAGUCUUCGGUGACGCGAUAGCGCCAACGUUCUCAACUAUGACACGCAAAACGCGUGCUCCGUUGAAUGGAGUUUAUCAUG | ≤ -4.2
7 | GGAUCUUCUCGAUCUAACAAAAAAGUCAAAGCUGCCACAAAGCUUGAGAGCAUCUUCGGAUGCAGAGGCGGCAGCCUUCGGUGGAGCGGUAGCGCCAACGUUCUCAACUAUGACACGCAAAACGCGUGCUCCGUUGAAUGGAGUUUAUCAUG | ≤ -4.2
8 | GGAUCUUCUCGAUCUAACAAAAAAGUCAAAUCGGCCACAAAGCUUGAGAGGAUCUUCGGAUGCAGAGAAGGCAGCCUUCGGUGGCGCGAUAGCGCCAACGUUCUCAACUAUGACGCGCAAAACGCGUGCUCCGUUGAAUGGAGUUUAUCAUG | ≤ -4.2
9 | GGAUCUUCUCGAUCUAACAAAAAAGUCAAAUCUGCCACAAAGCUUGAGAGCAUCUUCGGAUGCAGAGGCGGCAGCCUUCGGUGGCGCGACAGCGCCGACGUUCUCAUCUAUGACACGCAAAACGCGUGCUCCGUUGACUGGAGUUUAUCAUG | ≤ -4.2
10 | GGAUCUUCUCGAUCUAACAAAAAAGUCAAAUCUGCCACAAAGCUUGAGAGCAUCUUCGGAAGCAGAGGCGGCAGCCUUUGGUGGCGCGAUAGCGCGAACGGUCUCAACUAUGACACGCAAAACGCGUGCUCCGUUGAAUGGAGUUUAUCAUG | ≤ -4.2
11 | GGAUCUUCUCGAUCUAACAAAAAAGAAAAAUCUGCCACAAAGCUUGGGAGUAACUUCGGAUGCAGAGGCGGCAGGCUUCGGUGGCGCGAUAGCGCAAACGUUCUCAAUUAUGACACGCAAAAAGCGUGCUCCGUUGAAUGGACUUUAUCAUG | ≤ -4.2
12 | GGAUCUUCUCGAUCUAACAAAAAAGUCAAAUCCGCCACAAAGCUUGAGAGCAUCCUCGGCUGCAGAGGCGGCAGCCUUCGGUGUCGCGAUAGCGCCAACGUUCUCAACUAUGACACGCAAAAGGCGUGCUCCGUUGAAUGGAGUUUAUCAUG | ≤ -4.2
13 | GGAUCUUCUCGAUCUAACAAAAAAGAAAAAUCUGCCACAAAUCUUGAGAGCAUCUUCGGAUGCAGAGGCGGCAGCCUUCGGUGGCGCGAUAGUGCCAACGUUCUCAACUGGGACACGCAAAACGCGUGCUCCGUUGAAUGGAGUCUAUCAUG | ≤ -4.2
14 | GGAUCUUCUCGAUCUAACAAAAAAGUCAAAUCUGCCACAAAGCUUGAGAGCAUCUUCGGAUGCAGAGGCGGCAGCCUUCGGUGUCGAGAUAGCGCCAACGUUCUCAACUAUGACAUGCAAAACGCGUGCUCCGUUGAAUGGAGUUUAUCAUG | ≤ -4.2
15 | GGAUCUUCUCGAUCUAACAAAAAAGUCAAAUCUGCCACAAAGCUUGAGAGCAGCUUCGGAUGCAGAGGCGGCAGCCUUCGGUAGCGCGAUAGCGCCAACGUUCUCAACUAUGACACGGAAAACGCGUGCUCCGUCGAAUGGAGUUUAUCAUG | ≤ -4.2
16 | GGAUCUUCUCGAUCUAACAAAAAAGUCAAAUCUGCCACAAAGCUUGAGAGCAUCUUCGGAUGCAGAGGCGGCAGCCGUCGGUGGCGCGAUAGCGCCAACGUUCUCAACUAUGACACGCAAAACGCGUGCUCCGUUGAAUGGAGUUUAUCAUG | ≤ -4.2
17 | GGAUCUUCUCGAUCUAACAAAAAAGAAAAAUCUGCCACAACGCUUGAGAGCAUCUUCGGAUGCAGAGGCGGCAGCCUUCGGUGGCGCGAUAGCGCUAACGUUCUCAACUAUGACACGCAAAACGCGUGCUCCGUUGAAUGGAGUUUAUCAUG | ≤ -4.2
18 | GGAUCUUCUCGAUCUAACAAAAAAGUCAAAACUGCCACAAAGCGUGAGAGCAUCUUCGGAUGCAGAGGCGGCAGGCUUCGGUGGCGCGAUAGCGCCAACGUGCUCAACUAUGACACGCACAACGCGUGCUCCGUUGAAUGGAGUUUAUCAUG | ≤ -4.2
19 | GGAUCUUCUCGAUCUAACAAAAAAGUCAAAUCUGCCACAAAGCUUGAGAGCAUCUUCGGAUGCAGAGGCGGCAGCCUUCGGUGGCGCGAUACCGCCAACGUUCUCAACUAUGACACGCAAAACGCGUGCUCCGUUGAAUGGAGUUUAUCAUG | -3.52

Reference: the RNAGym collection of RNA variant scans (doi:10.1073/pnas.2313332121)
